# Reference: PubChem BioAssay (NCATS)
# Inconclusive means that the source gave no clear call. Such entries were picked first, then a sample of the others. For some assays here: Potencies beside an inconclusive call are fits to weak or partial responses and may not hold up. Calls of active or inactive are those of the source. Unless noted, the call rests on the fitted dose curve; in most records, active means well fitted curve in the direction sought with a large enough effect; inconclusive means small, poorly fitted or top-dose-only effect, or another doubt; inactive means no such curve, though single readings can be large; an effect the other way counts as inactive or inconclusive.
# Tests used:
# [1] = target: Aldehyde dehydrogenase, mitochondrial (Homo sapiens) (UniProt P05091); experiment: qHTS for Inhibitors of the Aldehyde Dehydrogenase Family (ALDH2) Confirmatory screens (AID 2061303; active means well fitted inhibition curve with a large enough effect; inconclusive means small, poorly fitted or top-dose-only effect; inactive means no such curve, though single readings can be large or run the other way; title and protocol of this record describe different tests; further: nearly all actives have a fitted effect of over 45% in size; further: potency means the concentration at half of the fitted maximal effect)
# [2] = qHTS for Inhibitors of the Aldehyde Dehydrogenase Family (ALDH1A2, ALDH1A3, ALDH2, ALDH3A1) (AID 2061307); further: nearly all actives have a fitted effect of over 50% in size; on Potency: test system not described further here; potency means the concentration at half of the fitted maximal effect
# [3] = target: Aldehyde dehydrogenase, mitochondrial (Homo sapiens) (UniProt P05091); experiment: qHTS for Inhibitors of the Aldehyde Dehydrogenase Family (ALDH2) Primary screen (AID 2061308); further: potency means the concentration at half of the fitted maximal effect; nearly all actives have a fitted effect of over 55% in size
# [4] = target: Retinal dehydrogenase 2 (Homo sapiens) (UniProt O94788); experiment: qHTS for Inhibitors of the Aldehyde Dehydrogenase Family (ALDH1A2) Confirmation screens (AID 2061314); further: potency means the concentration at half of the fitted maximal effect; nearly all actives have a fitted effect of over 65% in size
# [5] = target: Retinaldehyde dehydrogenase 3 (Homo sapiens) (UniProt P47895); experiment: qHTS for Inhibitors of the Aldehyde Dehydrogenase Family (ALDH1A3) Primary screen (AID 2061315)
# [6] = target: Aldehyde dehydrogenase 1A1 (Homo sapiens) (UniProt P00352); experiment: qHTS for Inhibitors of the Aldehyde Dehydrogenase Family (ALDH1A1) Confirmatory screens (AID 2061316); further: potency means the concentration at half of the fitted maximal effect; nearly all actives have a fitted effect of over 65% in size
# [7] = target: Retinaldehyde dehydrogenase 3 (Homo sapiens) (UniProt P47895); experiment: qHTS for Inhibitors of the Aldehyde Dehydrogenase Family (ALDH1A3) Confirmatory screens (AID 2061311); further: nearly all actives have a fitted effect of over 60% in size; further: potency means the concentration at half of the fitted maximal effect
# [8] = target: Retinaldehyde dehydrogenase 3 (Homo sapiens) (UniProt P47895); experiment: qHTS for Inhibitors of the Aldehyde Dehydrogenase Family (ALDH1A3) Validation screen (AID 2061312); further: nearly all actives have a fitted effect of over 45% in size; further: potency means the concentration at half of the fitted maximal effect
# [9] = target: Aldehyde dehydrogenase, mitochondrial (Homo sapiens) (UniProt P05091); experiment: qHTS for Inhibitors of the Aldehyde Dehydrogenase Family (ALDH2) Validation screens (AID 2061302; active means well fitted inhibition curve with a large enough effect; inconclusive means small, poorly fitted or top-dose-only effect; title and protocol of this record describe different tests; further: potency means the concentration at half of the fitted maximal effect)
# [10] = BET inhibitor-based combinations targeting novel dependencies in MECOM-rearranged (r) AML: HNT-34 cell line (AID 2202234); further: potency means the concentration at half of the fitted maximal effect; nearly all actives have a fitted effect of over 35% in size
# Outline: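 Each compound is tested in an 11-point concentration series against 500 seeded cells/well for 48 hr. The luminescent viability signal is normalized to DMSO and blank wells, then reduced to AUC and a cell-line-centred Z-AUC.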
# [11] = BET inhibitor-based combinations targeting novel dependencies in MECOM-rearranged (r) AML: AML-191 cell line (AID 2202236; further: potency means the concentration at half of the fitted maximal effect; nearly all actives have a fitted effect of over 35% in size)
# Outline: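 A 48 hr incubation preceded viability reading by CellTiter-Glo, with 15 min room-temperature development. Dose series had 11 points; normalization used DMSO and empty wells; AUC was computed and mean-centered per line as Z-AUC.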
# Tags describe the fitted curve by direction and shape.
smiles,measurement,setting,value
Cc1cccc(C)c1OP(=O)(OCc1c(-c2ccccc2)no[n+]1[O-])Oc1c(C)cccc1C,Potency,[1],active: 1.12 µM
same,Potency,[2],active: 5.04 µM
same,Potency,[3],"inconclusive: 10 µM [inhibitor, partial curve]"
same,Potency,[4],active: 12.7 µM
same,Potency,[5],inactive
same,Potency,[6],"inconclusive: 1.13 µM [inhibitor, full curve]"
C[C@]12Cc3cn4c(nc3C=C1CCC1C2CC[C@@]2(C)[C@H]1CC[C@@]2(O)C#N)nc1ccccc14 (some centres undefined),Potency,[1],"inconclusive: 12.7 µM [inhibitor, partial curve]"
same,Potency,[2],"inconclusive: 11.3 µM [inhibitor, partial curve]"
same,Potency,[7],"inconclusive: 17.9 µM [inhibitor, partial curve, poor fit]"
same,Potency,[8],"inconclusive: 3.55 µM [inhibitor, full curve]"
same,Potency,[4],"inconclusive: 15.9 µM [inhibitor, partial curve]"
Clc1ccc(N2CC3CCC(C2)N3)nn1,Potency,[9],"inconclusive: 14.1 µM [inhibitor, single point]"
same,Potency,[8],"inconclusive: 1.41 µM [inhibitor, full curve]"
CO[C@H]1CC=C2CCN3CCC4=C(CC(=O)OC4)[C@]23C1,Potency,[9],"inconclusive: 10 µM [inhibitor, partial curve]"
same,Potency,[8],"inconclusive: 1.78 µM [inhibitor, full curve]"
Cc1ccc(S(=O)(=O)N[C@@H](CCCCN)C(=O)CCl)cc1,Potency,[9],"inconclusive: 8.91 µM [inhibitor, partial curve]"
same,Potency,[2],inactive
same,Potency,[7],inactive
same,Potency,[8],"inconclusive: 0.355 µM [inhibitor, full curve]"
same,Potency,[6],"inconclusive: 25.2 µM [inhibitor, partial curve]"
N#C/C(=C/c1ccc(O)c(O)c1)C(N)=S,Potency,[9],"inconclusive: 14.1 µM [inhibitor, partial curve, poor fit]"
same,Potency,[8],"inconclusive: 0.355 µM [inhibitor, full curve]"
CC(=O)c1c(O)c(C)c(O)c(Cc2c(O)c3c(c(C(=O)/C=C/c4ccccc4)c2O)OC(C)(C)C=C3)c1O,Potency,[9],active: 8.91 µM
same,Potency,[8],"inconclusive: 0.398 µM [inhibitor, full curve]"
same,Potency,[10],"inconclusive: 26.3 µM [inhibitor, single point]"
same,Potency,[11],"inconclusive: 37.2 µM [inhibitor, single point]"
Cn1cnc(CCN)c1,Potency,[9],"inconclusive: 14.1 µM [inhibitor, partial curve, poor fit]"
same,Potency,[8],"inconclusive: 7.94 µM [inhibitor, full curve, poor fit]"
Cc1[nH]c2ccc(Cl)cc2c1CCN(C)C,Potency,[1],inactive
same,Potency,[2],inactive
same,Potency,[3],"inconclusive: 31.6 µM [inhibitor, single point]"
same,Potency,[7],inactive
same,Potency,[8],active: 10 µM
same,Potency,[6],"inconclusive: 20.1 µM [inhibitor, partial curve]"
CN(N=O)c1cc(O)ccc1O,Potency,[9],active: 0.794 µM
same,Potency,[2],active: 2.25 µM
same,Potency,[8],active: 0.282 µM
same,Potency,[4],"inconclusive: 31.8 µM [inhibitor, single point]"
N#Cc1nc(-c2cccc3ccccc23)oc1NCc1ccccc1,Potency,[1],"inconclusive: 39.8 µM [inhibitor, partial curve, poor fit]"
same,Potency,[2],active: 2.52 µM
same,Potency,[3],"inconclusive: 12.6 µM [inhibitor, partial curve, poor fit]"
same,Potency,[7],"inconclusive: 7.12 µM [inhibitor, partial curve]"
same,Potency,[4],"inconclusive: 3.16 µM [inhibitor, full curve, poor fit]"
CC[C@@H](CO)NC(=O)[C@@H]1C=C2c3cccc4[nH]cc(c34)C[C@H]2N(C)C1,Potency,[9],"inconclusive: 7.94 µM [inhibitor, partial curve]"
same,Potency,[8],"inconclusive: 0.501 µM [inhibitor, full curve]"
CCCCCN(C)CCC(O)(P(=O)(O)O)P(=O)(O)O,Potency,[9],inactive
same,Potency,[8],inactive
NC(N)=NOCC[C@H](N)C(=O)O,Potency,[9],"inconclusive: 11.2 µM [inhibitor, partial curve]"
same,Potency,[8],"inconclusive: 3.55 µM [inhibitor, full curve]"
CN1CC[C@@]2(C)c3cc(O)ccc3N(C)C12 (some centres undefined),Potency,[9],"inconclusive: 14.1 µM [inhibitor, partial curve]"
same,Potency,[1],"inconclusive: 2.83 µM [inhibitor, partial curve]"
same,Potency,[2],"inconclusive: 0.565 µM [inhibitor, full curve]"
same,Potency,[8],"inconclusive: 0.251 µM [inhibitor, full curve, poor fit]"
same,Potency,[6],"inconclusive: 6.34 µM [inhibitor, partial curve, poor fit]"
Cc1ncc(CNC(=O)N(CCCl)N=O)c(N)n1,Potency,[9],"inconclusive: 17.8 µM [inhibitor, partial curve, poor fit]"
same,Potency,[2],inactive
same,Potency,[7],inactive
same,Potency,[8],"inconclusive: 0.398 µM [inhibitor, full curve]"
same,Potency,[4],"inconclusive: 10.1 µM [inhibitor, partial curve, poor fit]"
